{"source": "PubChem BioAssay AID485297", "about": "(National Center for Advancing Translational Sciences (NCATS), 2010)", "note": "The campaign covered roughly 320,000 compounds. About 9,100 (2.8%) were called active. This list was built around the results that the source calls inconclusive (neither active nor inactive); the mix of calls is not that of the screen. Calls follow the shape of the dose curve; as a rule, active = well fitted activation curve with a large enough effect; inconclusive = small, poorly fitted or top-dose-only effect; inactive = no such curve, though single readings can be large or run the other way. No potency is given beside an inconclusive call; the fits are too rough. Potency is read from the fitted curve at half-maximal effect; tags tell the direction and shape of the fitted curve.", "data": [{"experiment": "qHTS Assay for Rab9 Promoter Activators; also: nearly all actives have a fitted effect of over 60% in size; as to activation, negative = inhibition: % of control where 0% means no effect", "settings": "Huh7 Rab9 promoter-luciferase reporter, luminescence, 24 h; series mostly up to 9.22 µM; activation, negative = inhibition: at the top concentration", "how_it_was_run": "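Huh7 cells stably carrying a Rab9 promoter-luciferase reporter, 1500 cells per well in OP-MEM I with 10% FBS, treated with compound 24 hours at 37C. Luciferase activity read by luminescence after 10 minutes with Amplite reagent.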", "values": [{"molecule": "Cc1nnc(-c2cnn(-c3ccccc3)c2N)n1Cc1ccncc1", "activation, negative = inhibition": "inactive: 6.74%"}, {"molecule": "Cc1ccc(C(=O)Nc2ccc3c(c2)OCO3)cc1S(=O)(=O)N1CCCC1", "Potency": "inconclusive [activator, single point]"}, {"molecule": "Cc1ccc(NS(=O)(=O)c2cc(-c3cc(C)no3)ccc2C(C)C)nc1", "activation, negative = inhibition": "inactive: 13.3%"}, {"molecule": "COc1ccc(-c2cccc(C(=O)N3CCOCC3)c2)cc1", "Potency": "inconclusive [activator, partial curve]"}, {"molecule": "COC(=O)c1cc(-c2cc(OC)ccc2OC)nc2c1c(=O)n(C)c(=O)n2Cc1ccccc1", "activation, negative = inhibition": "inactive: -0.288%"}, {"molecule": "Brc1ccc(-c2nc(-c3ccccn3)no2)o1", "Potency": "inconclusive [activator, full curve]"}, {"molecule": "S=c1[nH]ncn1/N=C/c1ccc(Br)cc1", "activation, negative = inhibition": "inactive: -0.609%"}, {"molecule": "CCOC(=O)c1ccc(-c2ccc(C=O)o2)cc1", "Potency": "inconclusive [activator, full curve, poor fit]"}, {"molecule": "COc1ccc(NC(=O)Nc2nnc(-c3cccs3)s2)cc1", "Potency": "active: 3.98 µM"}, {"molecule": "Cc1cc(C)c2c(N)c(C(=O)Nc3ccc(F)cc3)sc2n1", "Potency": "active: 0.501 µM"}, {"molecule": "NC(=O)CSc1nnc(NC(=O)c2ccc3ccccc3c2)s1", "Potency": "active: 2.82 µM"}, {"molecule": "Fc1cccc(Cc2noc(CN3CCCCC3c3ccccn3)n2)c1", "note": "(stereo not given)", "Potency": "inconclusive [activator, single point]"}, {"molecule": "COc1ccc(C(=O)NNC(=O)c2ccc(C)cc2)cc1S(=O)(=O)N1CCCC1", "Potency": "inconclusive [activator, single point]"}, {"molecule": "O=c1sc(Nc2ccccc2)nc2ccsc12", "Potency": "inconclusive [activator, single point]"}, {"molecule": "Cc1ccc(C(=O)Nc2nnn(C)n2)cc1", "Potency": "inconclusive [activator, partial curve]"}, {"molecule": "O=[N+]([O-])c1ccc(/C=N/Nc2nc(N3CCCCC3)nc(N3CCCCC3)n2)cc1", "activation, negative = inhibition": "inactive: -13.3%"}, {"molecule": "COc1ccc(/C=C2/SC(=O)NC2=O)cc1", "Potency": "active: 3.16 µM"}, {"molecule": "COc1ccc(-c2nc3cc(NC(=S)NC(=O)Cc4ccccc4)ccc3o2)cc1", "Potency": "inconclusive [activator, partial curve]"}, {"molecule": "Cc1ccc(Nc2nc(N3CCOCC3)nc(N3CCOCC3)n2)cc1C", "activation, negative = inhibition": "inactive: -6.48%"}, {"molecule": "COc1ccc(CCN=C(N)NS(=O)(=O)c2ccc(C)c(C)c2)cc1", "activation, negative = inhibition": "inactive: 0.556%"}, {"molecule": "CN(CCOc1ccccc1)C(=O)C1CCC(=O)N(CCc2ccc(Cl)cc2)C1", "note": "(stereo not given)", "Potency": "inconclusive [activator, partial curve, poor fit]"}, {"molecule": "Cc1cccc(NC(=S)NC(=O)c2oc3ccccc3c2C)n1", "Potency": "active: 1.41 µM"}, {"molecule": "CCCc1cc(C(=O)Nc2cnn(Cc3ccc(F)cc3)c2)no1", "Potency": "inconclusive [activator, single point]"}, {"molecule": "O=C(N/N=C/c1ccc[nH]1)c1ccccc1O", "Potency": "inconclusive [activator, partial curve]"}, {"molecule": "CC(C)C(=O)N1CCN(c2ccc(NC(=S)NC(=O)c3cc4ccccc4o3)cc2)CC1", "Potency": "inconclusive [activator, partial curve]"}, {"molecule": "Cc1ccc(C(=O)c2ncc[nH]2)cc1", "Potency": "inconclusive [activator, single point]"}, {"molecule": "Cc1cc(-n2c(C)cc(C(=O)CSc3nncn3C(C)C)c2C)no1", "activation, negative = inhibition": "inactive: -4.42%"}, {"molecule": "O=C(Nc1nc2c(s1)CCCC2)c1cc2n(n1)C(C(F)(F)F)CC(C1CC1)N2", "note": "(stereo not given)", "Potency": "inconclusive [activator, partial curve]"}, {"molecule": "Cc1ccc(C(=O)COc2ccccc2N2C(=O)c3ccccc3C2=O)cc1", "Potency": "inconclusive [activator, single point]"}, {"molecule": "CCc1ccc(-c2csc(NC(=O)COC(=O)CCc3nc4ccccc4s3)n2)cc1", "Potency": "active: 3.16 µM"}, {"molecule": "COc1ccccc1NS(=O)(=O)c1ccc(C(=O)Nc2ncccc2O)cc1", "Potency": "inconclusive [activator, single point]"}, {"molecule": "O=c1oc(-c2cccnc2)nc2ccccc12", "activation, negative = inhibition": "inactive: 4%"}, {"molecule": "O=C(NNC(=O)c1cc2ccccc2oc1=O)c1ccccc1", "Potency": "inconclusive [activator, partial curve]"}, {"molecule": "Cc1ccc(OCCOc2cccc(/C=N/NC(N)=O)c2)cc1", "Potency": "inconclusive [activator, partial curve]"}, {"molecule": "Cc1cc(N/N=C2/CCCc3ccccc32)nc2ccccc12", "Potency": "inconclusive [activator, partial curve]"}, {"molecule": "CCN(CC)c1ccc(/C=N/NC(=O)C2CC2)cc1", "Potency": "inconclusive [activator, single point]"}, {"molecule": "Cc1ccc(C(=O)CSc2nnc(C)s2)cc1", "Potency": "active: 2.24 µM"}, {"molecule": "COCCNc1nnc(SC(C)C(=O)Nc2ccc(-c3nc4ccc(C)cc4s3)cc2)s1", "note": "(stereo not given)", "Potency": "active: 0.282 µM"}, {"molecule": "c1ccc(CNc2ccc3ccccc3n2)nc1", "Potency": "inconclusive [activator, single point]"}, {"molecule": "Cc1cc(C)nc(N2CCCC(C(=O)Nc3ccc4nc(C)c(C)nc4c3)C2)n1", "note": "(stereo not given)", "activation, negative = inhibition": "inactive: -0.224%"}, {"molecule": "NC(=O)Cn1c(=O)n(Cc2ccccc2)c(=O)c2cccnc21", "activation, negative = inhibition": "inactive: 0.544%"}, {"molecule": "c1ccc(CCNc2ncnc3c2cnn3-c2ccccc2)cc1", "Potency": "active: 1.58 µM"}, {"molecule": "NS(=O)(=O)c1cccc(NC(=O)/C=C/c2cccs2)c1", "Potency": "inconclusive [activator, partial curve]"}, {"molecule": "CC(C)(C)c1ccc(C(=O)CSc2ncn[nH]2)cc1", "Potency": "inconclusive [activator, partial curve]"}, {"molecule": "Cc1cc(NC(=O)c2sc3ccccc3c2O)no1", "Potency": "active: 3.16 µM"}, {"molecule": "Cc1ccc(C(=O)N/N=C\\c2sccc2C)cn1", "Potency": "inconclusive [activator, partial curve]"}, {"molecule": "O=[N+]([O-])c1cccc(/C=C/c2ccccn2)c1", "Potency": "inconclusive [activator, single point]"}, {"molecule": "CCCn1c(C)cc(/C=C(\\C#N)C(=O)OCC(=O)Nc2cccc(OC)c2)c1C", "activation, negative = inhibition": "inactive: -6.61%"}, {"molecule": "O=C(COc1ccccc1Cl)NCc1ccncc1", "activation, negative = inhibition": "inactive: -4%"}, {"molecule": "Cc1cc(C)c(C)c(S(=O)(=O)NCc2ccncc2)c1C", "activation, negative = inhibition": "inactive: -22%"}, {"molecule": "O=C(NCCC1=CCCCC1)NC1CCCCC1", "Potency": "active: 0.794 µM"}, {"molecule": "CCOc1ccc(C(=O)Nc2nnc(C(C)C)s2)cc1OCC", "Potency": "inconclusive [activator, single point]"}, {"molecule": "COc1ccc2oc(C(=O)OCC(=O)NCc3ccc(OC)c(OC)c3)c(C)c2c1", "activation, negative = inhibition": "inactive: -0.945%"}, {"molecule": "COc1ccc(N2C(=O)c3ccccc3C2O)cc1", "note": "(stereo not given)", "Potency": "inconclusive [activator, single point]"}, {"molecule": "Cc1nc2ccc(C(=O)c3ccccc3)cc2[nH]1", "Potency": "inconclusive [activator, partial curve]"}, {"molecule": "COc1ccc(CNC(=O)NC2CCCCC2)cc1", "Potency": "inconclusive [activator, partial curve]"}, {"molecule": "COc1ccc2nc(/N=C\\N(C)C)sc2c1", "Potency": "inconclusive [activator, single point]"}, {"molecule": "Cc1ccnc2nc(NC(=O)c3ccco3)nn12", "Potency": "inconclusive [activator, single point]"}, {"molecule": "O=C(/C=C/c1ccc(Cl)cc1)NC(=S)Nc1ccc(CN2CCOCC2)cc1", "activation, negative = inhibition": "inactive: -2.45%"}, {"molecule": "O=C(NCc1ccccn1)C(=O)Nc1ccccc1", "Potency": "inconclusive [activator, partial curve]"}, {"molecule": "C#CCN1C(=O)S/C(=C\\c2ccc(-c3ccc(Cl)c(C(=O)O)c3)o2)C1=O", "Potency": "active: 1.78 µM"}, {"molecule": "CCCn1c(=O)c2ccccc2n2c(SCc3nc4ccccc4s3)nnc12", "Potency": "inconclusive [activator, partial curve]"}, {"molecule": "O=C(COc1ccccc1Br)c1ccc(O)cc1O", "activation, negative = inhibition": "inactive: 12.9%"}, {"molecule": "COc1cccc(CN(C)CC(=O)Nc2ccccc2N2CCOCC2)c1OC", "activation, negative = inhibition": "inactive: -2.18%"}, {"molecule": "O=C(Nc1ccc2c(c1)OCCO2)c1ccncc1", "Potency": "inconclusive [activator, single point]"}, {"molecule": "FC(F)(F)c1cccc(-c2ccc(-c3csnn3)o2)c1", "Potency": "inconclusive [activator, single point]"}, {"molecule": "O=C(/C=C/c1ccc(Cl)cc1Cl)OCC(=O)N1CCCC1", "activation, negative = inhibition": "inactive: 11.8%"}, {"molecule": "CS(=O)(=O)N1CCc2cc(C(=O)OCC(=O)c3ccccc3)ccc21", "Potency": "active: 3.55 µM"}, {"molecule": "CC(=O)c1cccc(NS(=O)(=O)c2ccc3c(c2)N(C(C)=O)CCO3)c1", "activation, negative = inhibition": "inactive: -3.63%"}, {"molecule": "C/C(C/C(C)=C1/SC(=S)NC1=O)=C1\\SC(=S)NC1=O", "activation, negative = inhibition": "inactive: -0.214%"}, {"molecule": "NC(=O)C1CC(=O)N(c2ccc(OCc3ccc(F)cc3)cc2)C1", "note": "(stereo not given)", "Potency": "inconclusive [activator, partial curve]"}, {"molecule": "Nc1nc2nc(-c3ccc(OCc4ccccc4)cc3)cc(C(F)(F)F)n2n1", "activation, negative = inhibition": "inactive: -3.7%"}, {"molecule": "O=C(Cn1nc(CNc2ccc(Br)cc2)[n+]2c1CCCCC2)c1ccc([N+](=O)[O-])cc1", "activation, negative = inhibition": "inactive: 13.7%"}, {"molecule": "O=C(c1ccc(-c2nc3ccccc3s2)s1)N1CCOCC1", "Potency": "inconclusive [activator, partial curve]"}, {"molecule": "COC(=O)CCS(=O)(=O)c1nc(-c2ccccc2)cc(C(F)(F)F)n1", "activation, negative = inhibition": "inactive: -16.2%"}, {"molecule": "CSc1n[nH]c(-c2ccc(C(F)(F)F)cc2)n1", "Potency": "inconclusive [activator, single point]"}, {"molecule": "COc1cc(CC(=O)N(C)CC(=O)Nc2ccc(Cl)c(C(F)(F)F)c2)cc(OC)c1OC", "activation, negative = inhibition": "inactive: -2.97%"}, {"molecule": "Cc1ccc(-c2cn(S(=O)(=O)c3cccc([N+](=O)[O-])c3)nc2N)cc1", "activation, negative = inhibition": "inactive: -1.36%"}, {"molecule": "COc1ccc(-c2nc(SCc3ccccc3)n(C(=O)c3ccco3)n2)cc1", "Potency": "inconclusive [activator, partial curve]"}, {"molecule": "CCOc1ccc(C(=O)COc2ccc(NC(C)=O)cc2)cc1", "Potency": "inconclusive [activator, partial curve, poor fit]"}]}]}
